Inconclusive results are not listed. For part of its entries the source gives two or more results. This is not the full list of results. There may be further records. Values that stand side by side do not match, cause unknown; they may come from other doses, times, organisms or constructs than stated.
Tested on: mice, ADJ-PC-20 plasma cell tumor sc, T/C %
Test: NCI In Vivo Anticancer Drug Screen. Data for tumor model ADJ-PC-20 Plasma Cell (subcutaneous) in unknown mice
Conditions: endpoint: mean tumor weight, higher = larger tumour
Protocol: The antitumor activity of compounds was measured in mice bearing transplantable tumors. Survival or tumor size were measured and the results are expressed as the measurement made in the treated group (T) divided by the measurement made in the vehicle treated control group (C). The tumor model used in this assay is ADJ-PC-20 Plasma Cell (subcutaneous) in unknown mice

## C[C@]12C=CC(=O)C=C1CC[C@@H]1[C@@H]2C(=O)C[C@@]2(C)[C@H]1CC[C@]2(O)C(=O)CO
dose: 25.0 mg/kg/injection, schedule: Q01DX010 (sc), vehicle: steriod suspending solution
  T/C: 30 % of control, 44 % of control, 56 % of control
dose: 50.0 mg/kg/injection, schedule: Q01DX010 (sc), vehicle: steriod suspending solution
  T/C: 8 % of control, 40 % of control, 41 % of control

## O=P1(N(CCCl)CCCl)NCCCO1 (stereo unspecified)
dose: 6.3 mg/kg/injection, schedule: Q01DX010 (ip), vehicle: saline
  T/C: 22 % of control, 30 % of control, 87 % of control

## CCN(CC)CCNc1ccc(C)c2sc3ccccc3c(=O)c12
dose: 12.5 mg/kg/injection, schedule: Q01DX010 (ip), vehicle: methylcellulose (MC)
  T/C: 25 % of control and 98 % of control
dose: 25.0 mg/kg/injection, schedule: Q01DX010 (ip), vehicle: methylcellulose (MC)
  T/C: 7 % of control and 75 % of control
dose: 50.0 mg/kg/injection, schedule: Q01DX010 (ip), vehicle: methylcellulose (MC)
  T/C: 2 % of control and 84 % of control

— PubChem BioAssay AID332 (DTP/NCI, 2004)
